Article PMC3524126
No constants are given. Whether binding was seen depends on the method and setting. In cells and extracts the contact can be indirect. Some entries that bind do so weakly or less than the wild type.

Sequences of proteins named here, by UniProt entry; tags and fusion partners are left off. A change or cut given only in a name is not applied to a line headed by its entry. Residues count along the entry.
UniProt P40238, residues 26-635: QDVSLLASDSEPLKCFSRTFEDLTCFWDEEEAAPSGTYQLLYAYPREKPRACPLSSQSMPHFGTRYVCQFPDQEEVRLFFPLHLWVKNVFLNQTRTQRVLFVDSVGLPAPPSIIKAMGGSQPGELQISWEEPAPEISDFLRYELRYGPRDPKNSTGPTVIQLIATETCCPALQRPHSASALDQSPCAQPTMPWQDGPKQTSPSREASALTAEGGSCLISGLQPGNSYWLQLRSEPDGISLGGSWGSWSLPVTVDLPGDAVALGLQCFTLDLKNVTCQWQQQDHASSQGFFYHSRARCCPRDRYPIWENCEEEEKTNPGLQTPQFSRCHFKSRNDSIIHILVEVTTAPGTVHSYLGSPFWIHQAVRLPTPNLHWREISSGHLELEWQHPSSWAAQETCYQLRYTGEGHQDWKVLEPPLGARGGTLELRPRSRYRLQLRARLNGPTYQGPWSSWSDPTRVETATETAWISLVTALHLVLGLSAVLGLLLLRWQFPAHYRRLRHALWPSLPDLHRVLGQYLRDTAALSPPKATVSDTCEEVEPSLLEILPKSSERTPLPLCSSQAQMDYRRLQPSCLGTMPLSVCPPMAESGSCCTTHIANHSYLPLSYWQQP
UniProt Q9Y266: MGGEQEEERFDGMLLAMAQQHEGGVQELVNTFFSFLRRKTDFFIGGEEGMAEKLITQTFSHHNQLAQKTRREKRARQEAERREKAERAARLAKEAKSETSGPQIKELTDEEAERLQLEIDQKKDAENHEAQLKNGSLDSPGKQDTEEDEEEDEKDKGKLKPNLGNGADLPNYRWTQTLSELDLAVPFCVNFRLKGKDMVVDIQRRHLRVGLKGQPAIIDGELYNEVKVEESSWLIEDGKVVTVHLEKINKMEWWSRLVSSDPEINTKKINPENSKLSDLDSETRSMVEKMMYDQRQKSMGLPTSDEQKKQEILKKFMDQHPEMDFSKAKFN

Experiments:
[1] = target: Flag-Mpl-VN (full-length thrombopoietin receptor Mpl fused to the N-terminal half of Venus) (UniProt P40238); test: split reporter; Venus BiFC read by confocal microscopy in living Cos-1 cells; 250 ng DNA of each construct, 12 h after transfection at 37°C
[2] = target: Mpl-YFP (thrombopoietin receptor Mpl fused upstream of yellow fluorescent protein) (UniProt P40238); test: FRET or BRET; acceptor photobleaching FRET, CFP donor and YFP acceptor, Cos-1 cells fixed 24 h after transfection
[3] = target: Flag-Mpl-VN (full-length thrombopoietin receptor Mpl fused to the N-terminal half of Venus) (UniProt P40238); test: split reporter; Venus BiFC read by flow cytometry of Cos-1 cells, 12 h after transfection; 1x10^4 cells, Venus-positive cells against untransfected and empty-vector cells

| Substance | binding [1] | binding [2] | binding [3] |
| --- | --- | --- | --- |
| HA-hNUDC-VC (full-length human NUDC fused to the C-terminal half of Venus) (from UniProt Q9Y266 1-331) | binds | – | – |
| HA-hNUDC(1-159)-VC (N-terminal half of hNUDC fused to the C-terminal half of Venus) (from UniProt Q9Y266 1-159) (domain or fragment) | binds | – | – |
| hNUDC(160-331)-CFP (from UniProt Q9Y266 160-331) (domain or fragment) | – | no binding | – |
| HA-hNUDC(160-331)-VC (C-terminal half of hNUDC fused to the C-terminal half of Venus) (from UniProt Q9Y266 160-331) (domain or fragment) | no binding | – | no binding |
